Measurements: PubChem BioAssay AID686978 (National Center for Advancing Translational Sciences (NCATS), 2013)
In all, about 420,000 compounds went through this assay and about 64,000 (15%) were called active. Inconclusive results, whose numbers are uncertain, are shown with a selection of clear calls. The call rests on the fitted dose curve; in most records, active means well fitted inhibition curve with a large enough effect; inconclusive means small, poorly fitted or top-dose-only effect; inactive means flat fitted curve, though single readings scatter. Potencies of inconclusive entries are left out as doubtful fits.

Assay: qHTS for Inhibitors of human tyrosyl-DNA phosphodiesterase 1 (TDP1): qHTS in cells in absence of CPT; further: nearly all actives have a fitted effect of over 55% in size
Details: DT40 Tdp1-/- hTDP1 cells, no CPT, ATP luminescence, 48 h; activity change, negative = growth inhibition: at 46.2 µM (top of the series) unless noted
Procedure, shortened: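 Luminescent ATP content (CellTiter-Glo) served as the growth readout. Knockout chicken DT40 cells expressing human TDP1 were exposed to compounds without camptothecin for a minimum 48 hr at 37 °C.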
On the % scale 0 is the no-effect control and ±100 the full control effect; potency means the concentration at half of the fitted maximal effect; tags describe the fitted curve by direction and shape.

Q: For CCOC(=O)c1cccc(NC(=O)N2Cc3ccccc3Oc3ncccc32)c1, which Potency is on record?
A: inactive

Q: Which Potency does the source give for CCCCCc1c(C)nc(Nc2ccc(F)cc2)[nH]c1=O here?
A: active: 16.4 µM

Q: Which Potency does the source give for COc1ccc(CCNC(=O)CSCc2ccc([N+](=O)[O-])cc2)cc1OC here?
A: active: 25.9 µM

Q: With Cc1nc(-c2ccc(F)cc2)c(CC(=O)N2CCN(S(=O)(=O)c3cccc([N+](=O)[O-])c3)CC2)s1 as the molecule, how does the Potency read?
A: inconclusive [inhibitor, partial curve]

Q: With CC1(CCc2ccccc2)NC(=O)N(CC(=O)N2CCc3ccccc32)C1=O (centres undefined) as the molecule, how does the Potency read?
A: inconclusive [inhibitor, single point]

Q: Which Potency does the source give for Cc1ccc(-n2nc3c(=O)n(CC(=O)NCCc4ccc(Cl)cc4)nc(C)c3c2C)cc1 here?
A: inconclusive [inhibitor, single point]

Q: With COc1ccc(N2CCN(CC(O)COc3ccc(C)c(C)c3)CC2)cc1 (centres undefined) as the molecule, how does the Potency read?
A: inconclusive [inhibitor, partial curve]

Q: For Cc1nc2c(sc3nc(N4CCOCC4)c4c(c32)CC(C)(C)OC4)c(-c2ccccc2)c1C(=O)O, which Potency is on record?
A: inconclusive [inhibitor, partial curve]

Q: With CCCN(CCC)c1nc(N)nc(C#N)n1 as the molecule, how does the Potency read?
A: active: 17.8 µM

Q: For CCOc1ccccc1NC(=O)C(OC(=O)c1ccc(CC)cc1)c1ccccc1 (centres undefined), which Potency is on record?
A: inconclusive [inhibitor, single point]

Q: For CCOc1ccc2oc(=O)cc(CN3CCN(Cc4ccccc4)CC3)c2c1, which Potency is on record?
A: active: 23.1 µM

Q: Which Potency does the source give for CC(C)(C)S(=O)N1Cc2cc(CO)ccc2[C@H]1CCO (some centres undefined) here?
A: inconclusive [inhibitor, single point]

Q: Which Potency does the source give for Cc1ccc(CN(C)C(=O)c2ccc(S(=O)(=O)N3CCCCCC3)cc2)o1 here?
A: inconclusive [inhibitor, single point]

Q: For COc1ccc(CC2(CO)CCN(CC3=CC[C@H]4C[C@@H]3C4(C)C)CC2)cc1, which Potency is on record?
A: inactive

Q: With CCN(CC(=O)NC1CCS(=O)(=O)C1)C(=O)c1ccc(OC)c([N+](=O)[O-])c1 (centres undefined) as the molecule, how does the Potency read?
A: inactive

Q: Which Potency does the source give for COc1ccc(C(=O)Cn2cnc3ccccc3c2=O)c(OC)c1 here?
A: inconclusive [inhibitor, single point]

Q: With COc1ccc(N(C)S(=O)(=O)c2cccc(C(=O)NC3=NCCS3)c2)cc1 as the molecule, how does the activity change, negative = growth inhibition read?
A: inconclusive: -30% [inhibitor]

Q: With O=C(c1nc2ccc(Cl)cn2c1CNCC[C@@H]1C[C@@H]2C=C[C@H]1C2)N1CCCCCCC1 as the molecule, how does the Potency read?
A: inconclusive [inhibitor, single point]

Q: With CCCCN(C(=O)Cc1cccc(F)c1)c1c(N)n(CCC)c(=O)[nH]c1=O as the molecule, how does the Potency read?
A: inactive

Q: For S=C(Nc1cccc(Cl)c1)Nc1ccccc1Oc1ccccc1, which Potency is on record?
A: active: 20.6 µM

Q: For Cc1ccc(C(=O)/C=C/N(C)C)cn1, which Potency is on record?
A: inactive

Q: With O=C(COC(=O)c1ccc(-n2cnnn2)cc1)c1ccc(Br)cc1 as the molecule, how does the Potency read?
A: inactive

Q: Which Potency does the source give for Cc1cccc(OCC(=O)N/N=C/c2cn[nH]c2-c2ccc(Cl)c(Cl)c2)c1 here?
A: inconclusive [inhibitor, single point]

Q: With CCCCN(CCCC)Cc1ccc(C(=O)NNC(=O)Nc2ccc(F)cc2)o1 as the molecule, how does the Potency read?
A: inconclusive [inhibitor, partial curve]

Q: For Cc1ccc(NC(=O)CC2Sc3ccccc3NC2=O)c(C)c1 (centres undefined), which Potency is on record?
A: active: 23.1 µM

Q: Which Potency does the source give for C/C(CC(=O)NC1CCCCC1)=N\NC(=O)c1ccc(Br)cc1 here?
A: inactive

Q: For CCCCN(CCCC)S(=O)(=O)c1ccc(NC(=O)c2c(-c3ccccc3)noc2C)cc1, which Potency is on record?
A: active: 29.1 µM

Q: With O=C(CC1C(=O)OCC2CCCCN21)Nc1ccccc1C(F)(F)F (centres undefined) as the molecule, how does the Potency read?
A: inactive

Q: Which Potency does the source give for CCOC(=O)C(=CNc1ccc(N2CCCCC2)c(S(=O)(=O)Nc2ccccc2OC)c1)C(=O)OCC here?
A: active: 5.8 µM

Q: With CN1CCS/C1=C\C=C1/SC(=S)N(CC(=O)O)C1=O as the molecule, how does the Potency read?
A: inconclusive [inhibitor, full curve]

Q: For O=C(CN1C(=O)C2C3CCC(C3)C2C1=O)Oc1ccc2ccccc2c1 (centres undefined), which Potency is on record?
A: inconclusive [inhibitor, single point]

Q: Which Potency does the source give for O=C(Nc1ccc2c(c1)OCCO2)C(CCc1ccccc1)N(Cc1ccccc1)Cc1ccccc1 (centres undefined) here?
A: inconclusive [inhibitor, single point]

Q: For Cc1nc(-c2ccc(C(=O)Nc3cccc(F)c3)cc2)cs1, which Potency is on record?
A: inconclusive [inhibitor, partial curve]

Q: For CCc1nc2ccc(C(=O)N(C)Cc3ccco3)cn2c1N(CC)C(=O)NCCc1ccccc1, which Potency is on record?
A: inconclusive [inhibitor, single point]

Q: With COc1ccc(-n2c(=O)cnc3cnc(N(C)C)nc32)cc1 as the molecule, how does the Potency read?
A: inconclusive [inhibitor, single point]

Q: For CCOc1ccc(S(=O)(=O)N2CCN(C(=O)CCC(=O)N3CCOCC3)CC2)cc1, which Potency is on record?
A: inactive

Q: Which Potency does the source give for Cc1csc(NC(=O)/C=C/c2ccco2)n1 here?
A: inconclusive [inhibitor, partial curve, poor fit]

Q: With COC(=O)[C@@H]1CCCN1C(=O)c1c(OC)cc(=O)n2c1CCN(Cc1c(C)[nH]c3ccccc13)CC2 as the molecule, how does the Potency read?
A: inconclusive [inhibitor, single point]

Q: For CCOC(=O)C1(Cc2ccc(Cl)cc2)CCN(C(=O)c2ccoc2)CC1, which Potency is on record?
A: inconclusive [inhibitor, single point]

Q: Which Potency does the source give for O=c1sc2ccccc2n1COc1ccc(Cl)cc1 here?
A: inconclusive [inhibitor, single point]

Q: For COC(=O)c1ccc(CN2CCC(n3nccc3NC(=O)C3CCCC3)CC2)cc1, which Potency is on record?
A: inconclusive [inhibitor, single point]

Q: With Cc1ccccc1-c1nc(NCc2cccs2)c2ccccc2n1 as the molecule, how does the Potency read?
A: inconclusive [inhibitor, single point]

Q: For CC(=O)Nc1ccc(S(=O)(=O)c2ccc([N+](=O)[O-])cc2)cc1, which Potency is on record?
A: inconclusive [inhibitor, single point]

Q: For COC(=O)C1(C(=O)OC)C/C=C\CCN(S(=O)(=O)c2ccccc2[N+](=O)[O-])CC1, which Potency is on record?
A: inconclusive [inhibitor, single point]
